# Laboratory results taken from the supplement of paper PMC8728848.
# This is one part of the list.
# B1: LngA (Escherichia coli) (protein)
# chain: MLSVYNRTQKFKAEARKKIAKYHELRKQRGMSLLEVIIVLGIIGTIAAGVVILAQRAFDSRAVTDLVTNTNTVRVRMKDAYQRDGKYPDFVDPLSLTANTIKTDTSGIPAAQLVQLGKITPDEVRNNISGDFIAIGGALTSNGAQVKKGFAIELNGLSQEQCRSILGQVGNNWEYVAIGTSASGSYAMTATGVDMSVAASTTVLRSLGNNGQTTLTADKILSTCTAQVNSITLGSR
# Tests used:
# Assay in all cases: glycan array binding signal (z-score within array); higher = stronger binding
# Details in all cases: glycan notation: IUPAC condensed, linker removed
# [1] = target: Fuc(a1-2)Gal6S(b1-3)GlcNAc6S
# How it was run: (§1)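 Columns mapping to the same glycan were averaged after glycan names were converted to IUPAC-condensed notation. The data come from 3228 arrays in the Consortium for Functional Glycomics database, limited to those with an available protein sequence. Binding is reported as a within-array Z-score averaged across arrays of one protein sequence and across linkers.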
# Fuc(a1-2)Gal6S(b1-4)Glc = target: Fuc(a1-2)Gal6S(b1-4)Glc
# How it was run: as §1
# [2] = target: Fuc(a1-2)Gal6S(b1-4)Glc6S
# How it was run: as §1
# Fuc(a1-2)[Gal(a1-3)]Gal = target: Fuc(a1-2)[Gal(a1-3)]Gal
# How it was run: as §1
# [3] = target: Fuc(a1-2)[Gal(a1-3)]Gal(b1-3)GalNAc
# How it was run: as §1
# [4] = target: Fuc(a1-2)[Gal(a1-3)]Gal(b1-3)GalNAc(b1-3)Gal(a1-4)Gal(b1-4)Glc
# How it was run: as §1
# [5] = target: Fuc(a1-2)[Gal(a1-3)]Gal(b1-3)GlcNAc
# How it was run: as §1
# [6] = target: Fuc(a1-2)[Gal(a1-3)]Gal(b1-3)GlcNAc(b1-2)Man(a1-3)[Fuc(a1-2)[Gal(a1-3)]Gal(b1-3)GlcNAc(b1-2)Man(a1-6)]Man(b1-4)GlcNAc(b1-4)GlcNAc
# How it was run: as §1
# [7] = target: Fuc(a1-2)[Gal(a1-3)]Gal(b1-3)GlcNAc(b1-2)Man(a1-3)[Fuc(a1-2)[Gal(a1-3)]Gal(b1-3)GlcNAc(b1-2)Man(a1-6)]Man(b1-4)GlcNAc(b1-4)[Fuc(a1-6)]GlcNAc
# How it was run: as §1
# [8] = target: Fuc(a1-2)[Gal(a1-3)]Gal(b1-3)GlcNAc(b1-3)GalNAc
# How it was run: as §1
# [9] = target: Fuc(a1-2)[Gal(a1-3)]Gal(b1-3)GlcNAc(b1-6)GalNAc
# How it was run: as §1
# [10] = target: Fuc(a1-2)[Gal(a1-3)]Gal(b1-4)Glc
# How it was run: as §1
# [11] = target: Fuc(a1-2)[Gal(a1-3)]Gal(b1-4)GlcNAc
# How it was run: as §1
# [12] = target: Fuc(a1-2)[Gal(a1-3)]Gal(b1-4)GlcNAc(b1-2)Man
# How it was run: as §1
# [13] = target: Fuc(a1-2)[Gal(a1-3)]Gal(b1-4)GlcNAc(b1-2)Man(a1-3)[Fuc(a1-2)[Gal(a1-3)]Gal(b1-4)GlcNAc(b1-2)Man(a1-6)]Man(b1-4)GlcNAc(b1-4)GlcNAc
# How it was run: as §1
# [14] = target: Fuc(a1-2)[Gal(a1-3)]Gal(b1-4)GlcNAc(b1-2)Man(a1-3)[Fuc(a1-2)[Gal(a1-3)]Gal(b1-4)GlcNAc(b1-2)Man(a1-6)]Man(b1-4)GlcNAc(b1-4)[Fuc(a1-6)]GlcNAc
# How it was run: as §1
# [15] = target: Fuc(a1-2)[Gal(a1-3)]Gal(b1-4)GlcNAc(b1-3)GalNAc
# How it was run: as §1
# [16] = target: Fuc(a1-2)[Gal(a1-3)]Gal(b1-4)GlcNAc(b1-3)[Fuc(a1-2)[Gal(a1-3)]Gal(b1-4)GlcNAc(b1-6)]GalNAc
# How it was run: as §1
# [17] = target: Fuc(a1-2)[Gal(a1-3)]Gal(b1-4)GlcNAc(b1-6)GalNAc
# How it was run: as §1
# [18] = target: Fuc(a1-2)[Gal(a1-3)]Gal(b1-4)[Fuc(a1-3)]Glc
# How it was run: as §1
# [19] = target: Fuc(a1-2)[Gal(a1-3)]Gal(b1-4)[Fuc(a1-3)]GlcNAc
# How it was run: as §1
# [20] = target: Fuc(a1-2)[Gal(a1-3)]Gal(b1-4)[Fuc(a1-3)]GlcNAc(b1-3)GalNAc
# How it was run: as §1
# [21] = target: Fuc(a1-2)[Gal(a1-4)]Gal(b1-4)GlcNAc
# How it was run: as §1
# [22] = target: Fuc(a1-2)[GalNAc(a1-3)]Gal
# How it was run: as §1
# [23] = target: Fuc(a1-2)[GalNAc(a1-3)]Gal(b1-3)GalNAc(a1-3)[Fuc(a1-2)]Gal(b1-4)GlcNAc
# How it was run: as §1
# [24] = target: Fuc(a1-2)[GalNAc(a1-3)]Gal(b1-3)GalNAc(b1-3)Gal(a1-4)Gal(b1-4)Glc
# How it was run: as §1
# [25] = target: Fuc(a1-2)[GalNAc(a1-3)]Gal(b1-3)GlcNAc
# How it was run: as §1
# [26] = target: Fuc(a1-2)[GalNAc(a1-3)]Gal(b1-3)GlcNAc(b1-2)Man(a1-3)[Fuc(a1-2)[GalNAc(a1-3)]Gal(b1-3)GlcNAc(b1-2)Man(a1-6)]Man(b1-4)GlcNAc(b1-4)GlcNAc
# How it was run: as §1
# [27] = target: Fuc(a1-2)[GalNAc(a1-3)]Gal(b1-3)GlcNAc(b1-2)Man(a1-3)[Fuc(a1-2)[GalNAc(a1-3)]Gal(b1-3)GlcNAc(b1-2)Man(a1-6)]Man(b1-4)GlcNAc(b1-4)[Fuc(a1-6)]GlcNAc
# How it was run: as §1
# [28] = target: Fuc(a1-2)[GalNAc(a1-3)]Gal(b1-3)GlcNAc(b1-3)GalNAc
# How it was run: as §1
# [29] = target: Fuc(a1-2)[GalNAc(a1-3)]Gal(b1-3)GlcNAc(b1-6)GalNAc
# How it was run: as §1
# [30] = target: Fuc(a1-2)[GalNAc(a1-3)]Gal(b1-4)Glc
# How it was run: as §1
# [31] = target: Fuc(a1-2)[GalNAc(a1-3)]Gal(b1-4)GlcNAc
# How it was run: as §1
# [32] = target: Fuc(a1-2)[GalNAc(a1-3)]Gal(b1-4)GlcNAc(b1-2)Man
# How it was run: as §1
# [33] = target: Fuc(a1-2)[GalNAc(a1-3)]Gal(b1-4)GlcNAc(b1-2)Man(a1-3)[Fuc(a1-2)[GalNAc(a1-3)]Gal(b1-4)GlcNAc(b1-2)Man(a1-6)]Man(b1-4)GlcNAc(b1-4)GlcNAc
# How it was run: as §1
# [34] = target: Fuc(a1-2)[GalNAc(a1-3)]Gal(b1-4)GlcNAc(b1-2)Man(a1-3)[Fuc(a1-2)[GalNAc(a1-3)]Gal(b1-4)GlcNAc(b1-2)Man(a1-6)]Man(b1-4)GlcNAc(b1-4)[Fuc(a1-6)]GlcNAc
# How it was run: as §1
# [35] = target: Fuc(a1-2)[GalNAc(a1-3)]Gal(b1-4)GlcNAc(b1-3)Gal(b1-4)GlcNAc
# How it was run: as §1
# [36] = target: Fuc(a1-2)[GalNAc(a1-3)]Gal(b1-4)GlcNAc(b1-3)Gal(b1-4)GlcNAc(b1-3)Gal(b1-4)GlcNAc
# How it was run: as §1
# [37] = target: Fuc(a1-2)[GalNAc(a1-3)]Gal(b1-4)GlcNAc(b1-3)GalNAc
# How it was run: as §1
# [38] = target: Fuc(a1-2)[GalNAc(a1-3)]Gal(b1-4)GlcNAc(b1-3)[Fuc(a1-2)[GalNAc(a1-3)]Gal(b1-4)GlcNAc(b1-6)]GalNAc
# How it was run: as §1
# [39] = target: Fuc(a1-2)[GalNAc(a1-3)]Gal(b1-4)GlcNAc(b1-6)GalNAc
# How it was run: as §1
# [40] = target: Fuc(a1-2)[GalNAc(a1-3)]Gal(b1-4)[Fuc(a1-3)]GlcNAc
# How it was run: as §1
# [41] = target: Fuc(a1-2)[GalNAc(a1-3)]Gal(b1-4)[Fuc(a1-3)]GlcNAc(b1-3)GalNAc
# How it was run: as §1
# [42] = target: Fuc(a1-2)[GalNAc(a1-4)]Gal(b1-4)GlcNAc
# How it was run: as §1
# [43] = target: Fuc(a1-2)[GalNAc(b1-3)]Gal
# How it was run: as §1
binder,measurement,setting,value
B1,glycan array binding signal (z-score),[1],0.694
same,glycan array binding signal (z-score),Fuc(a1-2)Gal6S(b1-4)Glc,-0.333
same,glycan array binding signal (z-score),[2],0.398
same,glycan array binding signal (z-score),Fuc(a1-2)[Gal(a1-3)]Gal,-0.307
same,glycan array binding signal (z-score),[3],-0.382
same,glycan array binding signal (z-score),[4],-0.264
same,glycan array binding signal (z-score),[5],1.83
same,glycan array binding signal (z-score),[6],-0.509
same,glycan array binding signal (z-score),[7],-0.231
same,glycan array binding signal (z-score),[8],-0.248
same,glycan array binding signal (z-score),[9],-0.18
same,glycan array binding signal (z-score),[10],-0.151
same,glycan array binding signal (z-score),[11],-0.379
same,glycan array binding signal (z-score),[12],-0.429
same,glycan array binding signal (z-score),[13],-0.19
same,glycan array binding signal (z-score),[14],-0.216
same,glycan array binding signal (z-score),[15],-0.306
same,glycan array binding signal (z-score),[16],-0.197
same,glycan array binding signal (z-score),[17],1.27
same,glycan array binding signal (z-score),[18],-0.596
same,glycan array binding signal (z-score),[19],-0.274
same,glycan array binding signal (z-score),[20],-0.252
same,glycan array binding signal (z-score),[21],-0.374
same,glycan array binding signal (z-score),[22],-0.472
same,glycan array binding signal (z-score),[23],-0.453
same,glycan array binding signal (z-score),[24],-0.408
same,glycan array binding signal (z-score),[25],-0.508
same,glycan array binding signal (z-score),[26],-0.385
same,glycan array binding signal (z-score),[27],-0.517
same,glycan array binding signal (z-score),[28],-0.284
same,glycan array binding signal (z-score),[29],-0.555
same,glycan array binding signal (z-score),[30],-0.517
same,glycan array binding signal (z-score),[31],-0.55
same,glycan array binding signal (z-score),[32],-0.403
same,glycan array binding signal (z-score),[33],-0.537
same,glycan array binding signal (z-score),[34],-0.215
same,glycan array binding signal (z-score),[35],-0.078
same,glycan array binding signal (z-score),[36],-0.381
same,glycan array binding signal (z-score),[37],-0.131
same,glycan array binding signal (z-score),[38],-0.252
same,glycan array binding signal (z-score),[39],-0.343
same,glycan array binding signal (z-score),[40],0.625
same,glycan array binding signal (z-score),[41],0.112
same,glycan array binding signal (z-score),[42],-0.513
same,glycan array binding signal (z-score),[43],-0.244
